{"source": "patent US20240034795A1", "about": "(Innovent, published 2024)", "binders": {"B1": {"name": "HDM-006 (Fc fusion)", "heavy": "QVQLQQPGAELVKPGASVKMSCKASGYTFTSYNMHWVKQTPGRGLEWIGAIYPGNGDTSYNQKFKGKATLTADKSSSTAYMQLSSLTSEDSAVYYCARSTYYGGDWYFNVWGAGTTVTVSAASTKGPSVFPLAPSSKSTSGGTAALGCLVKDYFPEPVTVSWNSGALTSGVHTFPAVLQSSGLYSLSSVVTVPSSSLGTQTYICNVNHKPSNTKVDKKV[gap - human IgG1 Fc with L234A L235A S364R D399K (EU numbers)]", "light": "QIVLSQSPAILSASPGEKVTMTCRASSSVSYIHWFQQKPGSSPKPWIYATSNLASGVPVRFSGSGSGTSYSLTISRVEAEDAATYYCQQWTSNPPTFGGGTKLEIKRTVAAPSVFIFPPSDEQLKSGTASVVCLLNNFYPREAKVQWKVDNALQSGNSQESVTEQDSKDSTYSLSSTLTLSKADYEKHKVYACEVTHQGLSSPVTKSFNRGEC", "chain": "APASSSTKKTQLQLEHLLLDLQMILNGINNYKNPELEEMLTAKFYMPKKATELKHLQCLEEELKPLEEVLNLAGDASIHDLISNINVIVLELKGSETTFMCEYADETATIVEFLNRWITFSQSIISTLTGGGGSGGGGSDKTHTCPPCPAPEAAGGPSVFLFPPKPKDTLMISRTPEVTCVVVDVSHEDPEVKFNWYVDGVEVHNAKTKPREEQYNSTYRVVSVLTVLHQDWLNGKEYKCKVSNKALPAPIEKTISKAKGQPREPQVTTLPPSRDELTKNQVSLTCLVSGFYPSDIAVEWESNGQPENNYKTTPPVLDSDGSFFLYSDLTVDKSRWQQGNVFSCSVMHEALHNHYTQKSLSLSPGK", "notes": "also called Fc mutant (HDM-006); Fc heterodimer"}}, "key": {"[1]": {"biological_target": "T1, human FcRn (Cat. No. CT009-H08H, Lot No. LC120C3101, Sino biological) (human, UniProt P55899 partial chain; P61769 partial chain)", "T1 construct": "Bought reagent", "T1 sequence (P55899 24-297 limits assumed, chain 1 of 2)": "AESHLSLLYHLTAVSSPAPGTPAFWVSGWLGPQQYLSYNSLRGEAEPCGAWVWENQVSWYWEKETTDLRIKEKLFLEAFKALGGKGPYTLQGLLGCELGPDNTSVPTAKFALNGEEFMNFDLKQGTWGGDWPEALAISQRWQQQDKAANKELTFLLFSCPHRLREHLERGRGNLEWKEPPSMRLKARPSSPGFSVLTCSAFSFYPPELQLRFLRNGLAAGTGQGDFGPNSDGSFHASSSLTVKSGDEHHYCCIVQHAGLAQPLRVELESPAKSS", "T1 sequence (P61769 21-119 limits assumed, chain 2 of 2, further chain)": "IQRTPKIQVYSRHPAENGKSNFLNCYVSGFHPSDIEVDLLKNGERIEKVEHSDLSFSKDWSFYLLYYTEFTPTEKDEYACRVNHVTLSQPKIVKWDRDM", "experiment": "BLI (Fortebio Octet Red96), FcRn on HIS1K sensors"}, "[2]": {"biological_target": "T1, human FcRn (Cat. No. CT009-H08H, Lot …)", "experiment": "BLI (Fortebio Octet Red96), 100 nM FcRn loaded on HIS1K sensors, antibody 0-100 nM in solution"}}, "data": [{"binder": "B1", "values": [{"measurement": "fold difference of KD against control antibody IgG1 (adalimumab)", "setting": "[1]", "result": 1.4, "unit": "fold"}, {"measurement": "koff", "setting": "[2]", "result": 0.00842, "unit": "s⁻¹"}, {"measurement": "kon", "setting": "[2]", "result": 591000, "unit": "M⁻¹ s⁻¹"}]}]}
